# Data: the supplement of paper PMC8728848
# This is one part of the list.
# What was measured:
# Assay in all cases: glycan array binding signal (z-score within array); higher = stronger binding
# Settings in all cases: glycan notation: IUPAC condensed, linker removed
# [1] = target: Neu5Ac(a2-6)Gal(b1-4)GlcNAc(b1-2)Man(a1-3)[Neu5Ac(a2-3)Gal(b1-4)GlcNAc(b1-2)Man(a1-6)]Man(b1-4)GlcNAc(b1-4)GlcNAc
# How it was run: (§1)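 Columns mapping to the same glycan were averaged after glycan names were converted to IUPAC-condensed notation. The data come from 3228 arrays in the Consortium for Functional Glycomics database, limited to those with an available protein sequence. Binding is reported as a within-array Z-score averaged across arrays of one protein sequence and across linkers.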
# [2] = target: Neu5Ac(a2-6)Gal(b1-4)GlcNAc(b1-2)Man(a1-3)[Neu5Ac(a2-6)Gal(b1-4)GlcNAc(b1-2)Man(a1-6)]Man(b1-4)GlcNAc(b1-4)GlcNAc
# How it was run: as §1
# [3] = target: Neu5Ac(a2-6)Gal(b1-4)GlcNAc(b1-2)Man(a1-3)[Neu5Ac(a2-6)Gal(b1-4)GlcNAc(b1-2)Man(a1-6)]Man(b1-4)GlcNAc(b1-4)[Fuc(a1-6)]GlcNAc
# How it was run: as §1
# [4] = target: Neu5Ac(a2-6)Gal(b1-4)GlcNAc(b1-2)Man(a1-6)Man(b1-4)GlcNAc(b1-4)GlcNAc
# How it was run: as §1
# [5] = target: Neu5Ac(a2-6)Gal(b1-4)GlcNAc(b1-2)Man(a1-6)[Gal(b1-4)GlcNAc(b1-2)Man(a1-3)]Man(b1-4)GlcNAc(b1-4)GlcNAc
# How it was run: as §1
# [6] = target: Neu5Ac(a2-6)Gal(b1-4)GlcNAc(b1-2)Man(a1-6)[GlcNAc(b1-2)Man(a1-3)]Man(b1-4)GlcNAc(b1-4)GlcNAc
# How it was run: as §1
# [7] = target: Neu5Ac(a2-6)Gal(b1-4)GlcNAc(b1-2)Man(a1-6)[Man(a1-3)]Man(b1-4)GlcNAc(b1-4)GlcNAc
# How it was run: as §1
# [8] = target: Neu5Ac(a2-6)Gal(b1-4)GlcNAc(b1-2)[Neu5Ac(a2-6)Gal(b1-4)GlcNAc(b1-4)]Man(a1-3)[GlcNAc(b1-4)][Neu5Ac(a2-6)Gal(b1-4)GlcNAc(b1-2)[Neu5Ac(a2-6)Gal(b1-4)GlcNAc(b1-6)]Man(a1-6)]Man(b1-4)GlcNAc(b1-4)GlcNAc
# How it was run: as §1
# [9] = target: Neu5Ac(a2-6)Gal(b1-4)GlcNAc(b1-2)[Neu5Ac(a2-6)Gal(b1-4)GlcNAc(b1-4)]Man(a1-3)[GlcNAc(b1-4)][Neu5Ac(a2-6)Gal(b1-4)GlcNAc(b1-4)Man(a1-6)]Man(b1-4)GlcNAc(b1-4)GlcNAc
# How it was run: as §1
# [10] = target: Neu5Ac(a2-6)Gal(b1-4)GlcNAc(b1-2)[Neu5Ac(a2-6)Gal(b1-4)GlcNAc(b1-6)]Man(a1-6)[Neu5Ac(a2-6)Gal(b1-4)GlcNAc(b1-2)Man(a1-3)][GlcNAc(b1-4)]Man(b1-4)GlcNAc(b1-4)GlcNAc
# How it was run: as §1
# [11] = target: Neu5Ac(a2-6)Gal(b1-4)GlcNAc(b1-3)Gal(b1-3)GlcNAc
# How it was run: as §1
# [12] = target: Neu5Ac(a2-6)Gal(b1-4)GlcNAc(b1-3)Gal(b1-4)GlcNAc
# How it was run: as §1
# [13] = target: Neu5Ac(a2-6)Gal(b1-4)GlcNAc(b1-3)Gal(b1-4)GlcNAc(b1-2)Man(a1-3)[Neu5Ac(a2-6)Gal(b1-4)GlcNAc(b1-3)Gal(b1-4)GlcNAc(b1-2)Man(a1-6)]GalNAc
# How it was run: as §1
# [14] = target: Neu5Ac(a2-6)Gal(b1-4)GlcNAc(b1-3)Gal(b1-4)GlcNAc(b1-3)Gal(b1-4)GlcNAc
# How it was run: as §1
# [15] = target: Neu5Ac(a2-6)Gal(b1-4)GlcNAc(b1-3)Gal(b1-4)GlcNAc(b1-3)Gal(b1-4)GlcNAc(b1-2)Man(a1-3)[Neu5Ac(a2-6)Gal(b1-4)GlcNAc(b1-3)Gal(b1-4)GlcNAc(b1-3)Gal(b1-4)GlcNAc(b1-2)Man(a1-6)]GalNAc
# How it was run: as §1
# [16] = target: Neu5Ac(a2-6)Gal(b1-4)GlcNAc(b1-3)Gal(b1-4)GlcNAc(b1-3)GalNAc
# How it was run: as §1
# [17] = target: Neu5Ac(a2-6)Gal(b1-4)GlcNAc(b1-3)Gal(b1-4)GlcNAc(b1-3)[Neu5Ac(a2-6)Gal(b1-4)GlcNAc(b1-3)Gal(b1-4)GlcNAc(b1-6)]GalNAc
# How it was run: as §1
# [18] = target: Neu5Ac(a2-6)Gal(b1-4)GlcNAc(b1-3)Gal(b1-4)GlcNAc(b1-6)[Gal(b1-3)]GalNAc
# How it was run: as §1
# [19] = target: Neu5Ac(a2-6)Gal(b1-4)GlcNAc(b1-3)Gal(b1-4)[Fuc(a1-3)]GlcNAc(b1-3)Gal(b1-4)[Fuc(a1-3)]GlcNAc
# How it was run: as §1
# [20] = target: Neu5Ac(a2-6)Gal(b1-4)GlcNAc(b1-3)GalNAc
# How it was run: as §1
# [21] = target: Neu5Ac(a2-6)Gal(b1-4)GlcNAc(b1-3)[Neu5Ac(a2-6)Gal(b1-4)GlcNAc(b1-6)]GalNAc
# How it was run: as §1
# [22] = target: Neu5Ac(a2-6)Gal(b1-4)GlcNAc(b1-6)GalNAc
# How it was run: as §1
# [23] = target: Neu5Ac(a2-6)Gal(b1-4)GlcNAc(b1-6)[Gal(b1-3)GlcNAc(b1-3)]Gal(b1-4)Glc
# How it was run: as §1
# [24] = target: Neu5Ac(a2-6)Gal(b1-4)GlcNAc(b1-6)[Gal(b1-3)]GalNAc
# How it was run: as §1
# [25] = target: Neu5Ac(a2-6)Gal(b1-4)GlcNAc6S
# How it was run: as §1
# [26] = target: Neu5Ac(a2-6)GalNAc
# How it was run: as §1
# [27] = target: Neu5Ac(a2-6)GalNAc(b1-4)GlcNAc
# How it was run: as §1
# [28] = target: Neu5Ac(a2-6)GalNAc(b1-4)GlcNAc6S
# How it was run: as §1
# [29] = target: Neu5Ac(a2-6)GlcNAc(b1-4)GlcNAc
# How it was run: as §1
# [30] = target: Neu5Ac(a2-6)GlcNAc(b1-4)GlcNAc(b1-4)GlcNAc
# How it was run: as §1
binder,measurement,setting,value
"Pa IMPa (Pseudomonas aeruginosa), Q9I5W4 (protein) MSLSTTAFPSLQGENMSRSPIPRHRALLAGFCLAGALSAQAATQEEILDAALVSGDSSQLTDSHLVALRLQQQVERIRQTRTQLLDGLYQNLSQAYDPGAASMWVLPANPDNTLPFLIGDKGRVLASLSLEAGGRGLAYGTNVLTQLSGTNAAHAPLLKRAVQWLVNGDPGAATAKDFKVSVVGVDKTAALNGLKSAGLQPADAACNALTDASCASTSKLLVLGNGASAASLSATVRARLQAGLPILFVHTNGWNQSSTGQQILAGLGLQEGPYGGNYWDKDRVPSSRTRTRSVELGGAYGQDPALVQQIVDGSWRTDYDWSKCTSYVGRTTCDDVPGLSDFSKRVDVLKGALDAYNQKAQNLFALPGTTSLRLWLLWADAVRQNIRYPMDKAADTARFQETFVADAIVGYVREAGAAQKELGSYAGQRQQSMPVSGSEETLTLTLPSAQGFTAIGRMAAPGKRLSIRIEDAGQASLAVGLNTQRIGSTRLWNTRQYDRPRFLKSPDIKLQANQSVALVSPYGGLLQLVYSGATPGQTVTVKVTGAASQPFLDIQPGEDSSQAIADFIQALDADKADWLEIRSGSVEVHAKVEKVRGSIDKDYGGDVQRFIRELNEVFIDDAYTLAGFAIPNQAKTPAIQQECAARGWDCDSETLHKLPGTQHINVDQYAQCGGGCSGNPYDQTWGLNPRGWGESHELGHNLQVNRLKVYGGRSGEISNQIFPLHKDWRVLREFGQNLDDTRVNYRNAYNLIVAGRAEADPLAGVYKRLWEDPGTYALNGERMAFYTQWVHYWADLKNDPLQGWDIWTLLYLHQRQVDKSDWDANKAALGYGTYAQRPGNSGDASSTDGNDNLLLGLSWLTQRDQRPTFALWGIRTSAAAQAQVAAYGFAEQPAFFYANNRTNEYSTVKLLDMSQGSPAWPFP",glycan array binding signal (z-score),[1],0.275
same,glycan array binding signal (z-score),[2],0.217
same,glycan array binding signal (z-score),[3],-0.119
same,glycan array binding signal (z-score),[4],0.791
same,glycan array binding signal (z-score),[5],-0.15
same,glycan array binding signal (z-score),[6],0.752
same,glycan array binding signal (z-score),[7],0.154
same,glycan array binding signal (z-score),[8],-0.238
same,glycan array binding signal (z-score),[9],-0.008
same,glycan array binding signal (z-score),[10],-0.224
same,glycan array binding signal (z-score),[11],-0.527
same,glycan array binding signal (z-score),[12],-0.371
same,glycan array binding signal (z-score),[13],0.457
same,glycan array binding signal (z-score),[14],-0.353
same,glycan array binding signal (z-score),[15],0.335
same,glycan array binding signal (z-score),[16],0.067
same,glycan array binding signal (z-score),[17],0.683
same,glycan array binding signal (z-score),[18],-0.002
same,glycan array binding signal (z-score),[19],0.068
same,glycan array binding signal (z-score),[20],-0.376
same,glycan array binding signal (z-score),[21],-0.063
same,glycan array binding signal (z-score),[22],0.506
same,glycan array binding signal (z-score),[23],-0.446
same,glycan array binding signal (z-score),[24],-0.253
same,glycan array binding signal (z-score),[25],-0.247
same,glycan array binding signal (z-score),[26],-0.489
same,glycan array binding signal (z-score),[27],1.12
same,glycan array binding signal (z-score),[28],-0.077
same,glycan array binding signal (z-score),[29],-0.303
same,glycan array binding signal (z-score),[30],-0.358
